This assay concerns the target BRD4 (BDII_E352-M457) (Homo sapiens, UniProt O60885). The assay is described as follows: TR-FRET bromodomain binding assay, BRD4 BDII. The procedure: A time-resolved fluorescence resonance energy transfer (TR-FRET) assay was used to determine the affinities of compounds of the Examples listed in Table 1 for each bromodomain of BRD4. […] An Alexa647-labeled BET-inhibitor was used as the fluorescent probe in the assay.
Compound dilution series were prepared in DMSO via an approximately 3-fold serial dilution. Compound dilutions were added directly into white, low-volume assay plates (Perkin Elmer Proxiplate 384 Plus #6008280) using a Labcyte Echo in conjunction with Labcyte Access and Thermo Multidrop CombinL robotics. Compounds were then suspended in eight microliters (μL) of assay buffer (20 mM Sodium Phosphate, pH 6.0, 50 mM NaCl, 1 mM Ethylenediaminetetraacetic acid disodium salt dihydrate, 0.01% Triton X-100, 1 mM DL-Dithiothreitol) containing His-tagged bromodomain, Europium-conjugated anti-His antibody (Invitrogen PV5596) and Alexa-647-conjugated probe.
After a one-hour equilibration at room temperature, TR-FRET ratios were determined using an Envision multilabel plate reader (Ex 340, Em 495/520).
TR-FRET data were normalized to the means of 24 no-compound controls (“high”) and 8 controls containing 1 μM un-labeled probe (“low”). Percent inhibition was plotted as a function of compound concentration and the data were fit with the 4 parameter logistic equation to obtain IC50s. Inhibition constants (Ki) were calculated from the IC50s, probe Kd and probe concentration.
Compound dilution series for Compounds A-E were prepared in DMSO via an approximately 3-fold serial dilution from 0.47 mM to 7.8 nM.
Compound dilutions were added directly into white, low-volume assay plates (Perkin Elmer Proxiplate 384 Plus #6008280) using a Labcyte Echo in conjunction with Labcyte Access and Thermo Multidrop CombinL robotics. Compounds were then suspended in eight microliters (μL) of assay buffer (20 mM Sodium Phosphate, pH 6.0, 50 mM NaCl, 1 mM Ethylenediaminetetraacetic acid disodium salt dihydrate, 0.01% Triton X-100, 1 mM DL-Dithiothreitol) containing His-tagged bromodomain, Europium-conjugated anti-His antibody (Invitrogen PV5596) and Alexa-647-conjugated probe.
The final concentration of 1× assay mixture contained 2% DMSO, 8 nM His-tagged bromodomain, 1 nM Europium-conjugated anti-His-tag antibody and 100 nM or 30 nM probe (for BDI or BDII, respectively) and compound concentration in the range of 9.19 μM-150 pM.
TR-FRET data were normalized to the means of 24 no-compound controls (“high”) and 8 controls containing 1 μM un-labeled probe (“low”). Percent inhibition was plotted as a function of compound concentration and the data were fit with the 4 parameter logistic equation to obtain IC50s. Inhibition constants (Ki) were calculated from the IC50s, probe Kd and probe concentration. Typical Z′ values were between 0.65 and 0.75. The minimum significant ratio was determined to evaluate assay reproducibility (Eastwood et al., (2006) J Biomol Screen, 11: 253-261). The MSR was determined to be 2.03 for BDI and 1.93 for BDII, and a moving MSR (last six run MSR overtime) for both BDI and BDII was typically <3.

This is an account of results in patent US20210047304A1, “Bromodomain Inhibitors” (AbbVie Inc., priority 2016, published 2021).

Regarding `Cc1cc(F)cc(C)c1Oc1ccc(C(C)(C)O)cc1-c1cn(C)c(=O)cc1O[C@H]1CC[C@@H](NNC(=O)OC(C)(C)C)CC1` [Example 107, tert-butyl 2-[cis-4-({5-[2-(4-fluoro-2,6-dimethylphenoxy)-5-(2-hydroxypropan-2-yl)phenyl]-1-methyl-2-oxo-1,2-dihydropyridin-4-yl}oxy)cyclohexyl]hydrazine-1-carboxylate], affinity was put at a Ki of 552 nM.
Next, `Cc1cc(F)cc(C)c1Oc1ccc(C(C)(C)O)cc1-c1cn(C)c(=O)cc1O[C@H]1CC[C@H](NC(=O)C2(CNC(=O)OC(C)(C)C)CC2)CC1` [Example 104, tert-butyl [(1-{[trans-4-({5-[2-(4-fluoro-2,6-dimethylphenoxy)-5-(2-hydroxypropan-2-yl)phenyl]-1-methyl-2-oxo-1,2-dihydropyridin-4-yl}oxy)cyclohexyl]carbamoyl}cyclopropyl)methyl]carbamate]: 6.89 nM; `CC(=O)N[C@H]1C[C@H](Oc2cc(=O)n(C)cc2-c2cc(C(C)(C)O)ccc2Oc2c(C)cc(F)cc2C)C1` [Example 100, N-[trans-3-({5-[2-(4-fluoro-2,6-dimethylphenoxy)-5-(2-hydroxypropan-2-yl)phenyl]-1-methyl-2-oxo-1,2-dihydropyridin-4-yl}oxy)cyclobutyl]acetamide]: 9.97 nM.
On to `CC(=O)N[C@H]1CC[C@H](Oc2cc(=O)n(C)cc2-c2cc(C(C)(C)O)cnc2Oc2c(C)cc(F)cc2C)CC1` [Example 1, N-(trans-4-{[2′-(4-fluoro-2,6-dimethylphenoxy)-5′-(2-hydroxypropan-2-yl)-1-methyl-6-oxo[1,6-dihydro[3,3′-bipyridine]]-4-yl]oxy}cyclohexyl)acetamide], for which the Ki (commonly the dissociation constant of the complex between target and ligand, obtained from inhibition or displacement) was found to be 4.9 nM.
In the case of `CNC(=O)N(C)Cc1ccc(Oc2c(C)cccc2C)c(-c2cn(C)c(=O)cc2O[C@H]2CC[C@H](NC(=O)C3(C)CC3)CC2)c1` [Example 113, N-[trans-4-({5-[2-(2,6-dimethylphenoxy)-5-{[methyl(methylcarbamoyl)amino]methyl}phenyl]-1-methyl-2-oxo-1,2-dihydropyridin-4-yl}oxy)cyclohexyl]-1-methylcyclopropane-1-carboxamide] it was 87.8 nM.
Next, `Cc1cc(F)cc(C)c1Oc1ccc(C(C)(C)O)cc1-c1cn(C)c(=O)cc1O[C@H]1CC[C@H](N2CCOC2=O)CC1` [Example 38, 5-[2-(4-fluoro-2,6-dimethylphenoxy)-5-(2-hydroxypropan-2-yl)phenyl]-1-methyl-4-{[trans-4-(2-oxo-1,3-oxazolidin-3-yl)cyclohexyl]oxy}pyridin-2(1H)-one]: 2.38 nM.
Next, `CCNC(=O)[C@H]1CC[C@@H](Oc2cc(=O)n(C)cc2-c2cc(C(C)(C)O)ccc2Oc2c(C)cc(F)cc2C)CC1` [Example 76, cis-N-ethyl-4-({5-[2-(4-fluoro-2,6-dimethylphenoxy)-5-(2-hydroxypropan-2-yl)phenyl]-1-methyl-2-oxo-1,2-dihydropyridin-4-yl}oxy)cyclohexane-1-carboxamide]: 148 nM; `Cc1cc(F)cc(C)c1Oc1ccc(C(C)(C)O)cc1-c1cn(C)c(=O)cc1O[C@H]1CC[C@H](N2C(=O)c3ccccc3C2=O)CC1` [Example 43, 2-[trans-4-({5-[2-(4-fluoro-2,6-dimethylphenoxy)-5-(2-hydroxypropan-2-yl)phenyl]-1-methyl-2-oxo-1,2-dihydropyridin-4-yl}oxy)cyclohexyl]-1H-isoindole-1,3(2H)-dione]: 3.48 nM.
With `COCC1(C(=O)N[C@H]2CC[C@H](Oc3cc(=O)n(C)cc3-c3cc(C(C)(C)O)ccc3Oc3c(C)cc(F)cc3C)CC2)CC1` [Example 70, N-[trans-4-({5-[2-(4-fluoro-2,6-dimethylphenoxy)-5-(2-hydroxypropan-2-yl)phenyl]-1-methyl-2-oxo-1,2-dihydropyridin-4-yl}oxy)cyclohexyl]-1-(methoxymethyl)cyclopropane-1-carboxamide], the Ki stood at 4.83 nM.
Next, `CCNC(=O)[C@H]1CC[C@H](Oc2cc(=O)n(C)cc2-c2cc(C(C)(C)O)ccc2Oc2c(C)cc(F)cc2C)CC1` [Example 63, trans-N-ethyl-4-({5-[2-(4-fluoro-2,6-dimethylphenoxy)-5-(2-hydroxypropan-2-yl)phenyl]-1-methyl-2-oxo-1,2-dihydropyridin-4-yl}oxy)cyclohexane-1-carboxamide]: 5.51 nM; `CC(=O)NC12CCC(C(=O)N[C@H]3CC[C@H](Oc4cc(=O)n(C)cc4-c4cc(C(C)(C)O)ccc4Oc4c(C)cc(F)cc4C)CC3)(C1)C2` (relative stereo) [Example 137, 4-acetamido-N-[trans-4-({5-[2-(4-fluoro-2,6-dimethylphenoxy)-5-(2-hydroxypropan-2-yl)phenyl]-1-methyl-2-oxo-1,2-dihydropyridin-4-yl}oxy)cyclohexyl]bicyclo[2.1.1]hexane-1-carboxamide]: 3.54 nM; `Cc1cc(F)cc(C)c1Oc1ncc(C(C)(C)O)cc1-c1cn(C)c(=O)cc1O[C@H]1CC[C@H](N2CCCC2=O)CC1` [Example 60, 2′-(4-fluoro-2,6-dimethylphenoxy)-5′-(2-hydroxypropan-2-yl)-1-methyl-4-{[trans-4-(2-oxopyrrolidin-1-yl)cyclohexyl]oxy}[3,3′-bipyridin]-6(1H)-one]: 7.74 nM.
As to `CC(=O)N[C@H]1CC[C@H](N(C)c2cc(=O)n(C)cc2-c2cc(C(C)(C)O)ccc2Oc2c(C)cc(F)cc2C)CC1` [Example 13, N-{trans-4-[{5-[2-(4-fluoro-2,6-dimethylphenoxy)-5-(2-hydroxypropan-2-yl)phenyl]-1-methyl-2-oxo-1,2-dihydropyridin-4-yl}(methyl)amino]cyclohexyl}acetamide], the affinity corresponds to a Ki of 1070 nM.
In the case of `Cc1cc(F)cc(C)c1Oc1ccc(C(C)(C)O)cc1-c1cn(C)c(=O)cc1O[C@H]1CC[C@H](N2C(=O)N[C@@H](C)C2=O)CC1` [Example 124, (5S)-3-[trans-4-({5-[2-(4-fluoro-2,6-dimethylphenoxy)-5-(2-hydroxypropan-2-yl)phenyl]-1-methyl-2-oxo-1,2-dihydropyridin-4-yl}oxy)cyclohexyl]-5-methylimidazolidine-2,4-dione] it was 2.61 nM; in that of `Cc1cc(F)cc(C)c1Oc1ccc(C(C)(C)O)cc1-c1cn(C)c(=O)cc1O[C@H]1CC[C@H](N2CCCOC2=O)CC1` [Example 39, 3-[trans-4-({5-[2-(4-fluoro-2,6-dimethylphenoxy)-5-(2-hydroxypropan-2-yl)phenyl]-1-methyl-2-oxo-1,2-dihydropyridin-4-yl}oxy)cyclohexyl]-1,3-oxazinan-2-one], 2 nM; in that of `Cc1cccc(C)c1Oc1ccc(C(C)(C)O)cc1-c1cn(C)c(=O)cc1NC1CCN(S(C)(=O)=O)C1` (stereo not shown) [Example 12, 5-[2-(2,6-dimethylphenoxy)-5-(2-hydroxypropan-2-yl)phenyl]-4-{[1-(methanesulfonyl)pyrrolidin-3-yl]amino}-1-methylpyridin-2(1H)-one], 35 nM.
`Cc1cc(F)cc(C)c1Oc1ccc(C(C)(C)O)cc1-c1cn(C)c(=O)cc1O[C@H]1CC[C@H](NC(=O)C(C)(C)CCCO)CC1` [Example 79, N-[trans-4-({5-[2-(4-fluoro-2,6-dimethylphenoxy)-5-(2-hydroxypropan-2-yl)phenyl]-1-methyl-2-oxo-1,2-dihydropyridin-4-yl}oxy)cyclohexyl]-5-hydroxy-2,2-dimethylpentanamide] registered a Ki of 1.71 nM.
Next, `Cc1cc(F)cc(C)c1Oc1ccc(C(C)(C)O)cc1-c1cn(C)c(=O)cc1O[C@H]1CC[C@H](N2C(=O)CN(C)C2=O)CC1` [Example 78, 3-[trans-4-({5-[2-(4-fluoro-2,6-dimethylphenoxy)-5-(2-hydroxypropan-2-yl)phenyl]-1-methyl-2-oxo-1,2-dihydropyridin-4-yl}oxy)cyclohexyl]-1-methylimidazolidine-2,4-dione]: 1.86 nM; `Cc1cc(F)cc(C)c1Oc1ccc(C(C)(C)O)cc1-c1cn(C)c(=O)cc1O[C@H]1CC[C@H](N2CCCCCC2=O)CC1` [Example 37, 1-[trans-4-({5-[2-(4-fluoro-2,6-dimethylphenoxy)-5-(2-hydroxypropan-2-yl)phenyl]-1-methyl-2-oxo-1,2-dihydropyridin-4-yl}oxy)cyclohexyl]azepan-2-one]: 1.78 nM.
